Consider four substances from publication PMC2481302.

Amino acid sequences for entries named in this document (tags omitted). A change or cut given only in a name is not applied to a line headed by its entry.
UniProt P06756: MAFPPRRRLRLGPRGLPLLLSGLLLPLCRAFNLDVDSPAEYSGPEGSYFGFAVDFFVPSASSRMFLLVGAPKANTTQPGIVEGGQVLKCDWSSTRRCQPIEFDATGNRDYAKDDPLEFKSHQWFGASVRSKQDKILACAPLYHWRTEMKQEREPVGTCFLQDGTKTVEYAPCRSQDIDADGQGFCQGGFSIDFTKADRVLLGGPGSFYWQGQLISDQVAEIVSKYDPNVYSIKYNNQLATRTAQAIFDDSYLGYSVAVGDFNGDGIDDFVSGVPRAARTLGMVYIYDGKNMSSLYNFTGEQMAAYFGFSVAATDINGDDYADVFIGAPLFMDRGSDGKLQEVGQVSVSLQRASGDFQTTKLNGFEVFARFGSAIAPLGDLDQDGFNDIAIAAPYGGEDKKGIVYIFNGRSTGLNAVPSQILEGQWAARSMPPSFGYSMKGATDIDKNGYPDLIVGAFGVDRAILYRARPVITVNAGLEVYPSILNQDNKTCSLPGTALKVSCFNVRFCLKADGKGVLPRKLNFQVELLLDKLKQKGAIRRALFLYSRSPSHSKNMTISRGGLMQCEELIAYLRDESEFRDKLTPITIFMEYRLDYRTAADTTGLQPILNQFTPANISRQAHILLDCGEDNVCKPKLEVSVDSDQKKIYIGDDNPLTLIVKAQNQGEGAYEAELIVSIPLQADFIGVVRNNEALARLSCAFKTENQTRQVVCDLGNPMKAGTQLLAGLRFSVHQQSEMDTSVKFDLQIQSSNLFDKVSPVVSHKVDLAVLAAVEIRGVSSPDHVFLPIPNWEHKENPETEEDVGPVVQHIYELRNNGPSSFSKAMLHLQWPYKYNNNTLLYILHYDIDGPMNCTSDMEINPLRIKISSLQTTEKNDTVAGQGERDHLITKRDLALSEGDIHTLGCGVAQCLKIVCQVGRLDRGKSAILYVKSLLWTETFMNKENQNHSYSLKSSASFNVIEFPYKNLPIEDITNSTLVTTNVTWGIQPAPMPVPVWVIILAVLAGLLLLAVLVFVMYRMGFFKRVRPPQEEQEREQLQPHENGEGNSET
UniProt P08648: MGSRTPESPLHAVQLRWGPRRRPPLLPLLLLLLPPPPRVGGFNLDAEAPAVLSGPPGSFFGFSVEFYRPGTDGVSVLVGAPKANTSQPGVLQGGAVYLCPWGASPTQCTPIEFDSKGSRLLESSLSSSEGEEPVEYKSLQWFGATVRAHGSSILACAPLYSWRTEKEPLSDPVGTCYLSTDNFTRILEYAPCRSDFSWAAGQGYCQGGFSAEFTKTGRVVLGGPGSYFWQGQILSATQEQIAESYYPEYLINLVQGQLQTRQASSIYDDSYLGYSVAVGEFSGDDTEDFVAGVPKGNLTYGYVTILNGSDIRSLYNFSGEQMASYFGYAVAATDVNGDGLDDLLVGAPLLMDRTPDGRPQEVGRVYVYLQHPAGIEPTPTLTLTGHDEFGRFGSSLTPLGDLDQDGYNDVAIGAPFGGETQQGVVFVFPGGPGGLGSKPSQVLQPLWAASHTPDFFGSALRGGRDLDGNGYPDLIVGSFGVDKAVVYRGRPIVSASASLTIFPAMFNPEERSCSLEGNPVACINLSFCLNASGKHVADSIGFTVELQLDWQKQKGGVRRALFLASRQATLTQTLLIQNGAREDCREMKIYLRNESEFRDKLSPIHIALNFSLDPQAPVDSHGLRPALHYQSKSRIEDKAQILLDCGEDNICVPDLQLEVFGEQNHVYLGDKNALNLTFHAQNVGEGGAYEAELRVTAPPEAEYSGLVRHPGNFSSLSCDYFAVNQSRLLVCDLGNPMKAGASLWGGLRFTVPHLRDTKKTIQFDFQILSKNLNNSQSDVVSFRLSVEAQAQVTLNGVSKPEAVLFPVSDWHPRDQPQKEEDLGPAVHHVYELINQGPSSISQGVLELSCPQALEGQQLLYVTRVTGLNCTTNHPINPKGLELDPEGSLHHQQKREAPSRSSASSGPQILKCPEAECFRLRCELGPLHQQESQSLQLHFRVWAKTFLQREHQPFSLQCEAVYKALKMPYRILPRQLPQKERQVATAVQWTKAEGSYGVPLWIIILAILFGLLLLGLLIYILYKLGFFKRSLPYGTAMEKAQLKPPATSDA

No constants are given. Whether binding was seen depends on the method and setting. Some binding calls cover weakened binding; strength is not graded here.

The target of experiment [1] is T1, CXCL4/CTF-S, scrambled peptide containing the amino acids of CXCL4/CTF.
T1 sequence (peptide): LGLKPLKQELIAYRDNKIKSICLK
Nature of the experiment: cell adhesion and spreading on coated coverslips; αvβ3-CHO cells or HUVECs plated for 4 h at 37°C in serum-free medium on coverslips coated with 25 µg/ml peptide; phase contrast and confocal microscopy; only the target purified.

Experiment [2] deals with T2, CXCL4/CTF, synthetic peptide encompassing amino-acid sequence 47-70 of CXCL4 (human).
T2 sequence (peptide): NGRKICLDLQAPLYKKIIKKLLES
Nature of the experiment: cell attachment assay; αvβ3-CHO and mock-transfected CHO cells plated on microtiter wells coated with CXCL4 or CXCL4/CTF at the indicated concentrations; 60 min at 37°C in serum-free medium with 0.5% BSA; attached cells stained with Coomassie blue, absorbance at 620 nm; also with 0.25 mM Mn2+ or 2 mM Mg2+; only the target purified.

The target is the same in experiment [3]. Nature of the experiment: cell attachment assay; as a2, but αvβ3-CHO cells incubated with 10 mM EDTA for 15 min before plating on CXCL4 or CXCL4/CTF; only the target purified.
Experiment [4] shares this target. Nature of the experiment: cell attachment assay; HUVECs plated on microtiter wells coated with CXCL4 or CXCL4/CTF; 60 min at 37°C in serum-free medium; the integrins were assigned with 10 µg/ml blocking anti-integrin antibodies (LM609, AV1, B3A, P1F6, JBS5, P1D6, CD29); only the target purified.

Consider “human αvβ3 integrin on CHO cells (αvβ3-CHO, clone A06) (from UniProt P06756 31-1048; P05106 27-788) (receptor)”, for which the binding result is listed as “no binding (tested: 25 µg/ml (coating))” in experiment [1], “binds” in experiment [2] and “no binding (condition: with 10 mM EDTA)” in experiment [3].

As to “α5β1 integrin on the surface of HUVECs (from UniProt P08648 42-1049; P05556 21-798) (receptor)”, the binding result in experiment [4] is on record as “binds”. “αvβ3 integrin on the surface of HUVECs (from UniProt P06756 31-1048; P05106 27-788) (receptor)”: the binding entry in experiment [4] is recorded as “binds”. As for “αvβ5 integrin on the surface of HUVECs (from UniProt P06756 31-1048; P18084 24-799) (receptor)”, in experiment [4], the binding result is recorded as “binds”.
